Experimental data published in paper PMC4336329 (PLoS ONE, 2015).
Hit rate of the full screen: of about 310,000 compounds, about 2,200 (0.71%) showed an effect of 50% or more. Effects have a minus sign here. Some of the results follow.

molecular target: human ether-à-go-go-related gene (hERG) potassium channel (human, UniProt Q12809); experiment: primary screen, population patch clamp on CHO cells stably expressing hERG
Sequence (Q12809 whole entry, looked up): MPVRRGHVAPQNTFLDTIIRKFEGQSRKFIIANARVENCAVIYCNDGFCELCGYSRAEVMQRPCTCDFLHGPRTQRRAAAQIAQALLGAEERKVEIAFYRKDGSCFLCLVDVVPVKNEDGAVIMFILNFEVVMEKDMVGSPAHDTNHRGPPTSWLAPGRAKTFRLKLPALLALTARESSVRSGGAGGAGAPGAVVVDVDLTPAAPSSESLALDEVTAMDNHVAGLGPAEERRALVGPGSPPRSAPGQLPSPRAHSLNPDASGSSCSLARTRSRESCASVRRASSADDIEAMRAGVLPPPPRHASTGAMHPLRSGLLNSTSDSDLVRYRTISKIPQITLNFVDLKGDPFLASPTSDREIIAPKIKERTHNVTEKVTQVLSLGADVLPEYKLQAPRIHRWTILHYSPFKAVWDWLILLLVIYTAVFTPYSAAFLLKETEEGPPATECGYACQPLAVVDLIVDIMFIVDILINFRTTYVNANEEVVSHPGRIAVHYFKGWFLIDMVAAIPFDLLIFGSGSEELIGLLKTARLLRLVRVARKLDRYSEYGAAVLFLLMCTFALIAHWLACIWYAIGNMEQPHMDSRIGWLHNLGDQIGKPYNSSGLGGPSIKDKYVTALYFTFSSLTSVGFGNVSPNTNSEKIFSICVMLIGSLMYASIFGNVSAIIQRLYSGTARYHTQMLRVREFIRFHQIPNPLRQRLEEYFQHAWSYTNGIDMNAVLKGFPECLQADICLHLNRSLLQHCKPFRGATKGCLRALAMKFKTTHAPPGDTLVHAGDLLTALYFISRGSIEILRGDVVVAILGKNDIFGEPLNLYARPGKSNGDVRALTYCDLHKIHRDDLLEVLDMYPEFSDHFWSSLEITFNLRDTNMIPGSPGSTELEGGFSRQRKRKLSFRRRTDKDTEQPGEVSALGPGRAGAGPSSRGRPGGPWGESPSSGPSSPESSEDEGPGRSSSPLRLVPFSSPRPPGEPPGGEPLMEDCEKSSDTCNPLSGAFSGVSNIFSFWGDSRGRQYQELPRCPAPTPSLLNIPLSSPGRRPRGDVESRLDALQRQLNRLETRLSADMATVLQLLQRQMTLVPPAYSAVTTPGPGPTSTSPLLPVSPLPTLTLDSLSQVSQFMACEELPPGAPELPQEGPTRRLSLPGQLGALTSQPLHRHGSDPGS

Row | Compound | hERG current change (%, negative = inhibition) at 1uM
1 | Cc1cccc(-n2c(O)c(C=Nc3ccccc3)c3ccccc3c2=O)n1 | 8.02%
2 | CC(C)CCN(C(=O)c1ccc(Br)cc1)c1c(N)n(Cc2ccccc2)c(=O)[nH]c1=O | 0.0038%
3 | CCN(CC1CCCO1)C(=O)c1cc(COc2ccc(OC)cc2Cl)on1 (stereo not drawn) | 5.36%
4 | CC1(c2ccc(Cl)cc2Cl)NC(=O)N(CC(=O)N2CCN(C(=O)c3ccco3)CC2)C1=O (stereo not drawn) | 2.7%
5 | O=C(O)CC(C(=O)O)N1C(=O)/C(=C/c2ccc(-c3nc4ccccc4s3)o2)SC1=S (stereo not drawn) | 0.538%
6 | Cc1ccc(NC(=O)Nc2ccc3c(c2)OCO3)c(Br)c1 | 19.1%
7 | CC(NC(=O)CN(c1cccc(C(F)(F)F)c1)S(=O)(=O)c1ccc(Cl)c([N+](=O)[O-])c1)c1ccccc1 (stereo not drawn) | 14.4%
8 | COc1ccccc1-c1cc(-c2cc(Cl)ccc2O)n[nH]1 | 15.1%
9 | C/C(=N\NC(=O)c1ccccn1)C12CC3CC(CC(C3)C1)C2 | 11.8%
10 | CCN(c1ccc(NC(=O)CCc2nc3sc4c(c3c(=O)[nH]2)CCCC4)cc1)C(C)C | 11.9%
11 | Cc1ccc2c(c1)NC(c1cccs1)C1=C(CC(C)(C)CC1=O)N2 (stereo not drawn) | 11.5%
12 | CN(CCC#N)c1ccc(/C=C(\C#N)c2ccccn2)cc1 | 9.85%
13 | CNC(=O)CCn1nc(-c2ccccc2)c2ccccc2c1=O | 16.9%
14 | Cc1ccc(N(CC(=O)Nc2cccc(Cl)c2C)S(C)(=O)=O)cc1 | 12.5%
15 | COc1ccc(NC(=O)/C=C/c2ccccc2[N+](=O)[O-])c(OC)c1 | 14.1%
16 | O=C(OCC(=O)N1CCOCC1)c1ccc(N2CCOCC2)c([N+](=O)[O-])c1 | 12.2%
17 | CCC(C)N1CC(C(=O)O)CC1=O (stereo not drawn) | 10%
18 | NC(=O)COc1ccc(C23CC4CC(CC(C4)C2)C3)cc1 | 12%
19 | O=Cc1cnc(N2CCCCC2)s1 | 18.8%
20 | COc1ccc(C(=O)Nc2ccc(S(=O)(=O)NC(C)=O)cc2)cc1 | 12.5%
21 | Cc1cccc(NS(=O)(=O)c2ccc3oc(=O)ccc3c2)c1C | 20.8%
22 | CC(C)COc1ccc(C(=O)N2C(=O)c3ccc(N)cc3C2=O)cc1 | 9.3%

Row | Compound | hERG current change (%, negative = inhibition) at 1uM
23 | CC(NC(=O)CN(C)S(=O)(=O)c1cnc[nH]1)c1ccccc1 (stereo not drawn) | 6.38%
24 | CC(C)c1csc(CN2CCC(n3nccc3NC(=O)Cc3ccccc3)CC2)n1 | 2.39%
25 | COCCNC(=O)CCn1nc(-c2ccc(Cl)cc2)c2ccccc2c1=O | 0.283%
26 | CN1C(=O)C(Cc2ccc3c(c2)OCO3)C(=O)N(C)C1=O | -0.0301%
27 | CCOC(=O)C1CCCN(C(=S)Nc2cc(C)cc(C)c2)C1 (stereo not drawn) | -6.32%
28 | COc1ccc(C(=O)Nc2ccc3c(c2)OCCO3)cc1 | 13.7%
29 | O=C(c1ccc(CSc2nc3ccncc3[nH]2)cc1)N1CCN(c2cccc(Cl)c2)CC1 | 6.24%
30 | Cc1ccc2occ(/C=N/NC(=O)c3ccc(Cl)cc3)c(=O)c2c1 | 13.9%
31 | CN1CCN(S(=O)(=O)c2cccc(C(=O)NC3CCCc4ccccc43)c2)CC1 (stereo not drawn) | 7.42%
32 | CC12CCC(C/C1=N/NC(=O)COc1ccccc1Cl)C2(C)C (stereo not drawn) | 5.22%
33 | Cc1cccc(C)c1NC(=O)CSc1nc2c([nH]1)c(=O)n(C)c(=O)n2C | 11.6%
34 | Cc1ccc(C#CC[N+]2(CC#Cc3ccc(C)cc3)CCCCC2)cc1.[Br-] | -51.8%
35 | Cc1c(Br)c(=O)oc2c(Br)c(O)c(O)cc12 | 5.18%
36 | Cc1ccccc1-c1nc(CN2CCC(C(=O)NC3CCCCC3)CC2)c(C)o1 | -17.2%
37 | COc1ccc2nc(-c3ccc(F)cc3)sc2c1 | 4.97%
38 | CCOc1ccc(N=Cc2c(O)n(C(C)(C)C)c(=O)[nH]c2=O)cc1 | 15%
39 | O=C(CCCCn1c(=O)c2ccccc2n(CC(=O)Nc2cccc(F)c2)c1=O)NCc1ccco1 | 10.9%
40 | Cc1cc2c(cc1S(=O)(=O)CCC(=O)N(C)Cc1ccccc1)OCC(=O)N2 | -16.3%
41 | Cc1c2c(nc3nnnn13)CCCC2 | 2.62%
42 | O=C(CC1NCCNC1=O)OCc1ccccc1 (stereo not drawn) | 7.51%
43 | O=C(NC1CCCCC1)C(c1ccccc1)N(Cc1ccc2c(c1)OCO2)C(=O)c1cnsn1 (stereo not drawn) | 3.57%
44 | CCOc1ccccc1N1CC(C(=O)NNC(=O)c2ccc(F)cc2)CC1=O (stereo not drawn) | 9.21%

Row | Compound | hERG current change (%, negative = inhibition) at 1uM
45 | O=C(Nc1cccnc1)c1cccc(S(=O)(=O)Nc2cccc(Cl)c2)c1 | 5.23%
46 | CCOC(=O)C1C(=O)NC23CCCC2C1c1ccccc1O3 (stereo not drawn) | 8.76%
47 | O=C(NC(=S)NCc1ccccc1)C1CCCCC1 | -1.16%
48 | Cc1ccccc1C(=O)N1CCCC(CCC(=O)N2CCN(c3ccccn3)CC2)C1 (stereo not drawn) | 13.6%
49 | COc1ccc(S(=O)(=O)N2CCN(CC(=O)Nc3cccc(F)c3)CC2)cc1 | -8.66%
50 | N#Cc1c(=O)c2nc(NCc3ccccc3)ncc2n2ccccc12 | -8.04%
51 | Brc1ccccc1/C=N/N1CCCCC1 | 11.5%
52 | COc1ccc(NC2=NCC(Cc3ccc(Br)cc3)S2)cc1 (stereo not drawn) | 7.69%
53 | CCC1=C2CC[C@H]3C(=O)N(C)C(=O)[C@H]3[C@H]2[C@@]2(Cc3ccccc3)C(=NCC(=O)OC)OC(=O)N2C1=O | 0.771%
54 | CCN(CC)CCNC(=O)c1ccc(Cl)c(S(=O)(=O)Nc2ccccc2OC)c1 | 5.7%
55 | COc1ccc2c(=O)c(Oc3ccc(C(=O)O)cc3)c(C(F)(F)F)oc2c1 | 1.68%
56 | O=C(C1=C[C@@H](c2csc3ccccc23)C[C@@H](OCc2ccc(CO)cc2)O1)N1CCN(Cc2ccc3c(c2)OCO3)CC1 | 3.81%
57 | COc1ccc(C)cc1NC(=O)C1CCN(S(=O)(=O)c2ccc3c(c2)C(C)(C)C(=O)N3C)CC1 | 11.5%
58 | COC(=O)C1=C(c2ccc(-c3ccccc3)c(F)c2)C[C@@H]2CC[C@H]1N2C(=O)N1CCC(C)CC1 | 11.7%
59 | CC(C)CNC(=O)COC(=O)c1ccc([N+](=O)[O-])cc1Cl | 0.162%
60 | O=C(Cn1cc(C(F)(F)F)ccc1=O)N1CCc2ccccc2C1 | 13.2%
61 | Cc1cccc(C(C)C)c1NC(=O)c1cc2ccccc2o1 | 16.7%
62 | Oc1c(N=NC(=S)Nc2ccccc2F)c2ccccc2n1Cc1ccc(F)cc1 | 12.9%
63 | CC(=O)Nc1ccc(S(=O)(=O)N2CCN(CC(O)COc3ccc4ccccc4c3)CC2)cc1 (stereo not drawn) | 4.92%
64 | COc1ccc(CCNC(=S)N2CCN(S(=O)(=O)c3ccccc3F)CC2)cc1 | 6.64%
65 | COc1ccc(C(=O)CSc2nnc(C3CC3)n2N)cc1 | -0.707%
66 | c1ccc(OCCCn2nnc(-c3cccnc3)n2)cc1 | 4.27%

Row | Compound | hERG current change (%, negative = inhibition) at 1uM
67 | COC(=O)C1=C(NC(=O)CCCCl)CCS1 | 20.1%
68 | Nc1c(-c2ccsc2)cnc2ncnn12 | 10.2%
69 | O=C(c1cccs1)N1CCc2ccccc2C1 | 9.68%
70 | CCOC(=O)C1=C(C)N=C2SCCC(=O)N2[C@@H]1c1cccs1 | 9.75%
71 | CC1CCN(S(=O)(=O)N2CCC(C(=O)NCCN3CCOCC3)CC2)CC1 | 7.15%
72 | O=C(O)c1cnn2c(C(F)(F)F)cc(-c3ccccc3)nc12 | 9.54%
73 | COc1ccc(NS(=O)(=O)c2ccc3c(c2)NC(=O)CO3)c(OC)c1 | 8.01%
74 | Br.NCc1cc(=O)[nH]o1 | 11.9%
75 | COc1cc(NC(=O)Cn2c(=O)n(CC3CCCO3)c(=O)c3cc(OC)c(OC)cc32)cc(OC)c1 (stereo not drawn) | 12.9%
76 | Cc1ccc(Oc2nnc(-c3ccc(C)cc3)c3ccccc23)cc1 | 9.14%
77 | Cc1csc(NC(=O)c2ccc3nc[nH]c3c2)n1 | 7.65%
78 | CC(C)c1nnc(NC(=O)c2ccc(S(=O)(=O)N3CCOCC3)cc2)s1 | 9.24%
79 | COc1ccc(-n2nc(C(=O)NCC(=O)N3CCN(Cc4ccccc4)CC3)c3ccccc3c2=O)cc1 | 13.1%
80 | O=C(Nc1ccccc1)C1CCCCN1S(=O)(=O)c1ccccc1 (stereo not drawn) | -2.5%
81 | O=S(=O)(c1ccccc1F)N1CCN(c2nc(-c3cccnc3)nc3ccccc23)CC1 | 2.38%
82 | O=C(NC1CCN(S(=O)(=O)c2ccccc2C(F)(F)F)CC1)c1ccco1 | 1.28%
83 | CCC(=O)NC(=S)Nc1ccc(NC(=O)c2cccc([N+](=O)[O-])c2C)cc1 | 17.8%
84 | CC(CC(=O)N(C)CC(=O)Nc1ccc(N2CCOCC2)cc1)c1ccccc1 (stereo not drawn) | 0.22%
85 | CCOc1ccc(-c2cc(C(=O)NCCCn3ccnc3)c3cc(Br)ccc3n2)cc1 | 5.17%
86 | CN1CCN(Cc2cn3cccnc3n2)CC1 | 15.9%
87 | COc1cc(/C=N\NC(=O)c2ccc(Cn3nc([N+](=O)[O-])c(Cl)c3C)o2)ccc1O | -13.7%
